Experimental data taken from PMC10864387.
These are yes or no findings as the source states them, for the method shown. For some assays here: In cells and extracts the contact can be indirect. Some entries that bind do so weakly or less than the wild type. For some assays here: Where a sequence is shown, tags or fusion partners need not be part of it.

The chains behind the UniProt entries cited, without tags or fusion partners.
UniProt P68366: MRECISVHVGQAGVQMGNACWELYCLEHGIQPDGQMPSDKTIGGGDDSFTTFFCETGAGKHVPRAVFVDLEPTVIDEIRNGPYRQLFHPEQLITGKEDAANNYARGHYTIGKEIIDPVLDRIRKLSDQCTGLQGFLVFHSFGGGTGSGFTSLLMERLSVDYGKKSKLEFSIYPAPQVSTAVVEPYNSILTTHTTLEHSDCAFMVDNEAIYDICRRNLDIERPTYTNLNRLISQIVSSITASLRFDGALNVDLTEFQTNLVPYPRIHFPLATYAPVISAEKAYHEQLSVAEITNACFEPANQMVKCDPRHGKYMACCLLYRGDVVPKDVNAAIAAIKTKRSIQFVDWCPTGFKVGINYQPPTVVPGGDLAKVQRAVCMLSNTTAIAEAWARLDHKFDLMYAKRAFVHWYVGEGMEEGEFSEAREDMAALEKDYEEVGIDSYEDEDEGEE
UniProt P42224: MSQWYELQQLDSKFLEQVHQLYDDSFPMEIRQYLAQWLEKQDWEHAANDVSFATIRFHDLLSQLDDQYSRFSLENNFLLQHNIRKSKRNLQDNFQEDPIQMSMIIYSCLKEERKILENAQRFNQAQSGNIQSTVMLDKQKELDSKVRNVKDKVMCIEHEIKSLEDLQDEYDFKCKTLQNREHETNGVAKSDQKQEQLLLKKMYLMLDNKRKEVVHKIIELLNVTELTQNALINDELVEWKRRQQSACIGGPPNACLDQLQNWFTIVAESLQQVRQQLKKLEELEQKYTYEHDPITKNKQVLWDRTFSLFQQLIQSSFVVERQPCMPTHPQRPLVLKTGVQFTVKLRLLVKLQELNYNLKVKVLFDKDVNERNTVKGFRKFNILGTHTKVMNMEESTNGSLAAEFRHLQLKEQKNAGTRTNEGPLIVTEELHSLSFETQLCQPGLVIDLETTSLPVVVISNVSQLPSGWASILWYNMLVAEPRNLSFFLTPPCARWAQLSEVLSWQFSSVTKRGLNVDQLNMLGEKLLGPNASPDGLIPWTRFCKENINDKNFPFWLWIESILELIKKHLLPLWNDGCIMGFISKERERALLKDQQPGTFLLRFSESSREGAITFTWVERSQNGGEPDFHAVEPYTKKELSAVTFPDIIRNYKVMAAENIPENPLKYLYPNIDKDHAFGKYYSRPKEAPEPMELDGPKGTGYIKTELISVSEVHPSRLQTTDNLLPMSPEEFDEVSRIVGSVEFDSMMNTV

T1: hexokinase domain component 1 (HKDC1), endogenous (human (endogenous in Hep3B)) (UniProt Q2TB90)
T1 sequence: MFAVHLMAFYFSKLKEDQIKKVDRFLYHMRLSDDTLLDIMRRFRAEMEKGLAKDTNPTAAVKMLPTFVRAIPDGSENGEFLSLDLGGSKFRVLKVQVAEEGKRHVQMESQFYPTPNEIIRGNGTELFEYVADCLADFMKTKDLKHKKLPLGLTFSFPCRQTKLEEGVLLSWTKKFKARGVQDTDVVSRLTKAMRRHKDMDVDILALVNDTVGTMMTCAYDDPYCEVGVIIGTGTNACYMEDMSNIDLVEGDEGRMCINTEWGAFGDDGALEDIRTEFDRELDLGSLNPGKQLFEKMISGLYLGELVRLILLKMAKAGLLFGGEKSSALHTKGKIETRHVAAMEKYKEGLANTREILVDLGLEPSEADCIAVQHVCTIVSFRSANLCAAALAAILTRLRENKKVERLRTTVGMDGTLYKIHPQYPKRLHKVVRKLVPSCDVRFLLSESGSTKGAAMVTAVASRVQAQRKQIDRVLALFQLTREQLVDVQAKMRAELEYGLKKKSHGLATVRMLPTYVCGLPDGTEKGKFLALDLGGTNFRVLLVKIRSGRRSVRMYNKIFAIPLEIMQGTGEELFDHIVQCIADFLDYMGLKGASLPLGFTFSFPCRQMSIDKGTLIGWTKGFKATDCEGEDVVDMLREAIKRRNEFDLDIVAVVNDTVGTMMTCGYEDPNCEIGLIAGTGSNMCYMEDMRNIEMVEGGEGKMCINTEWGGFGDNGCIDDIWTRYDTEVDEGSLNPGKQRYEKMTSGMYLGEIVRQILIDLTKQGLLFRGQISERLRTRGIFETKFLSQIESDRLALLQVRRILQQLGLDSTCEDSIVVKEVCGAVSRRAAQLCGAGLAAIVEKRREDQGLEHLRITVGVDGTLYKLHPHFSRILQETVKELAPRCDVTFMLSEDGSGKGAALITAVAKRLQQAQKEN

T2: Flag-tagged HKDC1 (human) (UniProt Q2TB90)
T2 sequence: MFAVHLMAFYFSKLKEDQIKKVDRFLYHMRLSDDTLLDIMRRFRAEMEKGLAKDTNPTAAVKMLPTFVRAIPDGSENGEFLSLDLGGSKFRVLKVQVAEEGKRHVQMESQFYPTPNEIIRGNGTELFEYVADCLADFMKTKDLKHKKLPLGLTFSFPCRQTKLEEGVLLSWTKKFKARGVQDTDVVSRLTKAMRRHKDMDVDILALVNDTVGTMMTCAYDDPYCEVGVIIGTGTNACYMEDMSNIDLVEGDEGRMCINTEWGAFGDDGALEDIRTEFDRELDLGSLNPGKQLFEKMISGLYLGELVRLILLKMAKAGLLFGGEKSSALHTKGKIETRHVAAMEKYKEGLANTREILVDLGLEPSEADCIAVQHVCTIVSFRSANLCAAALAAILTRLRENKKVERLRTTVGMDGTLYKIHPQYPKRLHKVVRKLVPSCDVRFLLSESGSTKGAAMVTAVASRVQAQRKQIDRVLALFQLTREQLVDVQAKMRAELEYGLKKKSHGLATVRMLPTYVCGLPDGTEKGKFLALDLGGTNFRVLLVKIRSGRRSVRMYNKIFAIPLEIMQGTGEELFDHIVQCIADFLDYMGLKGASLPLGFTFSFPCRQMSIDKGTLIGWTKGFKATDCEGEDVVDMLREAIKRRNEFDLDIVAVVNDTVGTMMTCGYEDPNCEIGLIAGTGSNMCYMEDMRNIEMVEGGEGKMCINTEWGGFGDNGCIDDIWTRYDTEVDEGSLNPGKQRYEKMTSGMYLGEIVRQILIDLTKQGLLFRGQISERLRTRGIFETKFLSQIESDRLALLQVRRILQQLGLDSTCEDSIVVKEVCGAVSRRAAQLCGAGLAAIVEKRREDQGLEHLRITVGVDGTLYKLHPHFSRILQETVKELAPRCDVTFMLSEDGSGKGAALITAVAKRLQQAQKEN

T3: GST-HKDC1^S602A (human) (UniProt Q2TB90)
T3 sequence: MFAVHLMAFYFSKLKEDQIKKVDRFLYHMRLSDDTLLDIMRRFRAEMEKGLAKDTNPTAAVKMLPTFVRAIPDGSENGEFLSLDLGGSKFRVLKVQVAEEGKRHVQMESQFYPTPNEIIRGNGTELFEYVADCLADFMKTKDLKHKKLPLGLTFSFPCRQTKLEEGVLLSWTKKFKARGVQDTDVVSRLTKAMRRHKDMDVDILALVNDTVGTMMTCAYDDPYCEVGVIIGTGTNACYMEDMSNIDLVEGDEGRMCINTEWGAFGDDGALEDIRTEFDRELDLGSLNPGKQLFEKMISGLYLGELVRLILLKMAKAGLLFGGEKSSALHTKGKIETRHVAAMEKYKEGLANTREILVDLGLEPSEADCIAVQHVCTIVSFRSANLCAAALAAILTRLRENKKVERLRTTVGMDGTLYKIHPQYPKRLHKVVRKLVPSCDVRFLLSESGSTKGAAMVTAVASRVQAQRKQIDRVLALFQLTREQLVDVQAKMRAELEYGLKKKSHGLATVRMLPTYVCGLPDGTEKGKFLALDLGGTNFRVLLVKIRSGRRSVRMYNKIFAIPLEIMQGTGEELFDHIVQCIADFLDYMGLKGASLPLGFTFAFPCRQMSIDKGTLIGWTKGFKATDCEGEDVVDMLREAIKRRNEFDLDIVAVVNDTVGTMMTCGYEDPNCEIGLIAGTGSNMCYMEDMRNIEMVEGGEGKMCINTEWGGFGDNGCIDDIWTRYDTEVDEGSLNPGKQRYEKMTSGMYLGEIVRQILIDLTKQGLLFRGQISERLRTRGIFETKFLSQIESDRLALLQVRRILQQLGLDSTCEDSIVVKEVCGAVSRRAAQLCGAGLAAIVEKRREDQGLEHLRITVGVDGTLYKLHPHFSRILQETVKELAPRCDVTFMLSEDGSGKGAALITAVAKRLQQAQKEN

T4: GST-HKDC1^WT (human) (UniProt Q2TB90)
T4 sequence: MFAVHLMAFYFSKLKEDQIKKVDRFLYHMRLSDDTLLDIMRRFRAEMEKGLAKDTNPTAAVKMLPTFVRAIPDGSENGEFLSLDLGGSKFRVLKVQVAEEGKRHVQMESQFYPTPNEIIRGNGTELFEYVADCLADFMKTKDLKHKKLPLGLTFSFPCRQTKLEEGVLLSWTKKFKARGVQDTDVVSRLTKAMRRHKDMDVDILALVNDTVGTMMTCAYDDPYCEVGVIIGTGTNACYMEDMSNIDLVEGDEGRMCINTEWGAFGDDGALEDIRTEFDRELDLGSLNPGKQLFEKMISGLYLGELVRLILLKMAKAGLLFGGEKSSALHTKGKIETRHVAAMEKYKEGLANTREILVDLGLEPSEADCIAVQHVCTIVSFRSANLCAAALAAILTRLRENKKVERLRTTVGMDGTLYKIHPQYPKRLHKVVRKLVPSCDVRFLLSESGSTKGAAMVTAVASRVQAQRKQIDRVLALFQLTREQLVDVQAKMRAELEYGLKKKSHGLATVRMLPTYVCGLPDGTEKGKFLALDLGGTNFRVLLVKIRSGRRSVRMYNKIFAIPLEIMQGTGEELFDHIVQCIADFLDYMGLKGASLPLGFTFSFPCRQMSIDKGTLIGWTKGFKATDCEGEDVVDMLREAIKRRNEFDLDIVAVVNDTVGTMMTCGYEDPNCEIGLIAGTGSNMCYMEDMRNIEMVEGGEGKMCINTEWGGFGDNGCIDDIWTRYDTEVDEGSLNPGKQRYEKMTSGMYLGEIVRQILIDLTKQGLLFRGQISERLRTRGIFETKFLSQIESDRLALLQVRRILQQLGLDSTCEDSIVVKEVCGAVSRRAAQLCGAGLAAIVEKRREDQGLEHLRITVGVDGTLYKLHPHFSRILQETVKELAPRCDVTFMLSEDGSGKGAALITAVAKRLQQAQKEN

T5: Flag-tagged IFNγ receptor 1 (IFNGR1) (UniProt P15260)
T5 sequence: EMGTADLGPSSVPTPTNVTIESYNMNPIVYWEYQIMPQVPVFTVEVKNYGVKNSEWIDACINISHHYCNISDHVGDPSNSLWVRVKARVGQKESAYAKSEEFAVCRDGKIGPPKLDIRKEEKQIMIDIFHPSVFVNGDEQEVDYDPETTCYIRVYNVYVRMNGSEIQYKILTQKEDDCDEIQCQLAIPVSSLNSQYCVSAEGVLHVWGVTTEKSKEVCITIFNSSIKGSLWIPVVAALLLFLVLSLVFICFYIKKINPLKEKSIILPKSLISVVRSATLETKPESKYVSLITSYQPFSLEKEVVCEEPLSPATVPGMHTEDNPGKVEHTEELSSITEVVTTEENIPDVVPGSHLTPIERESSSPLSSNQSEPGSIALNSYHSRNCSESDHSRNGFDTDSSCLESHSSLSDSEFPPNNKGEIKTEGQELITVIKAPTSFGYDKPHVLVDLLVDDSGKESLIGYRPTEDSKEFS


Tests used:
[1] = target: T1, hexokinase domain component 1 (HKDC1), endogenous (human (endogenous in Hep3B)); assay: co-IP; endogenous proteins in Hep3B (HCC) cells; NP-40 IP buffer (20 mM Tris-HCl pH 7.5, 150 mM NaCl, 1.5 mM MgCl2, 2 mM EDTA, 1% NP-40), antibody overnight at 4 °C, protein A/G beads, Western blot
[2] = target: T2, Flag-tagged HKDC1 (human); assay: co-IP; Flag- or HA-tagged proteins expressed in Hep3B (HCC) cells, with or without IFNγ stimulation, cells expressing NTC, shHKDC1 or shACTA2; NP-40 IP buffer, antibody overnight at 4 °C, protein A/G beads, Western blot
[3] = target: T3, GST-HKDC1^S602A (human); assay: pull-down; GST-fused HKDC1 and His-tagged STAT1 purified from E. coli, incubated in vitro in pull-down buffer (150 mM NaCl, 50 mM Tris pH 7.5, 0.1% NP-40, 5 mM dithiothreitol); Western blot with antibody against His-tag; both purified
[4] = target: T4, GST-HKDC1^WT (human); assay: as above
[5] = target: T5, Flag-tagged IFNγ receptor 1 (IFNGR1); assay: co-IP; Flag- or HA-tagged proteins expressed in Hep3B (HCC) cells, with or without IFNγ stimulation, cells expressing NTC, shHKDC1 or shACTA2; NP-40 IP buffer, antibody overnight at 4 °C, protein A/G beads, Western blot

Molecule | binding [1] | binding [2] | binding [5] | further results
TUBA4A, endogenous (from UniProt P68366 1-448) | no binding | no binding | – | –
HA-tagged STAT1 (from UniProt P42224 1-750) | – | binds | – | –
STAT1-His (from UniProt P42224 1-750) | – | – | – | binding [3]: binds; binding [4]: binds
HA-tagged HKDC1 (protein, UniProt Q2TB90 1-917) MFAVHLMAFYFSKLKEDQIKKVDRFLYHMRLSDDTLLDIMRRFRAEMEKGLAKDTNPTAAVKMLPTFVRAIPDGSENGEFLSLDLGGSKFRVLKVQVAEEGKRHVQMESQFYPTPNEIIRGNGTELFEYVADCLADFMKTKDLKHKKLPLGLTFSFPCRQTKLEEGVLLSWTKKFKARGVQDTDVVSRLTKAMRRHKDMDVDILALVNDTVGTMMTCAYDDPYCEVGVIIGTGTNACYMEDMSNIDLVEGDEGRMCINTEWGAFGDDGALEDIRTEFDRELDLGSLNPGKQLFEKMISGLYLGELVRLILLKMAKAGLLFGGEKSSALHTKGKIETRHVAAMEKYKEGLANTREILVDLGLEPSEADCIAVQHVCTIVSFRSANLCAAALAAILTRLRENKKVERLRTTVGMDGTLYKIHPQYPKRLHKVVRKLVPSCDVRFLLSESGSTKGAAMVTAVASRVQAQRKQIDRVLALFQLTREQLVDVQAKMRAELEYGLKKKSHGLATVRMLPTYVCGLPDGTEKGKFLALDLGGTNFRVLLVKIRSGRRSVRMYNKIFAIPLEIMQGTGEELFDHIVQCIADFLDYMGLKGASLPLGFTFSFPCRQMSIDKGTLIGWTKGFKATDCEGEDVVDMLREAIKRRNEFDLDIVAVVNDTVGTMMTCGYEDPNCEIGLIAGTGSNMCYMEDMRNIEMVEGGEGKMCINTEWGGFGDNGCIDDIWTRYDTEVDEGSLNPGKQRYEKMTSGMYLGEIVRQILIDLTKQGLLFRGQISERLRTRGIFETKFLSQIESDRLALLQVRRILQQLGLDSTCEDSIVVKEVCGAVSRRAAQLCGAGLAAIVEKRREDQGLEHLRITVGVDGTLYKLHPHFSRILQETVKELAPRCDVTFMLSEDGSGKGAALITAVAKRLQQAQKEN | – | – | binds | –

Further lines, with some results ahead:

binding [1] | binding [2] | binding [5] | Molecule | further results
binds | – | – | STAT1, endogenous (from UniProt P42224 1-750) | –
– | – | binds | hexokinase domain component 1 (HKDC1), endogenous (protein, UniProt Q2TB90 1-917) MFAVHLMAFYFSKLKEDQIKKVDRFLYHMRLSDDTLLDIMRRFRAEMEKGLAKDTNPTAAVKMLPTFVRAIPDGSENGEFLSLDLGGSKFRVLKVQVAEEGKRHVQMESQFYPTPNEIIRGNGTELFEYVADCLADFMKTKDLKHKKLPLGLTFSFPCRQTKLEEGVLLSWTKKFKARGVQDTDVVSRLTKAMRRHKDMDVDILALVNDTVGTMMTCAYDDPYCEVGVIIGTGTNACYMEDMSNIDLVEGDEGRMCINTEWGAFGDDGALEDIRTEFDRELDLGSLNPGKQLFEKMISGLYLGELVRLILLKMAKAGLLFGGEKSSALHTKGKIETRHVAAMEKYKEGLANTREILVDLGLEPSEADCIAVQHVCTIVSFRSANLCAAALAAILTRLRENKKVERLRTTVGMDGTLYKIHPQYPKRLHKVVRKLVPSCDVRFLLSESGSTKGAAMVTAVASRVQAQRKQIDRVLALFQLTREQLVDVQAKMRAELEYGLKKKSHGLATVRMLPTYVCGLPDGTEKGKFLALDLGGTNFRVLLVKIRSGRRSVRMYNKIFAIPLEIMQGTGEELFDHIVQCIADFLDYMGLKGASLPLGFTFSFPCRQMSIDKGTLIGWTKGFKATDCEGEDVVDMLREAIKRRNEFDLDIVAVVNDTVGTMMTCGYEDPNCEIGLIAGTGSNMCYMEDMRNIEMVEGGEGKMCINTEWGGFGDNGCIDDIWTRYDTEVDEGSLNPGKQRYEKMTSGMYLGEIVRQILIDLTKQGLLFRGQISERLRTRGIFETKFLSQIESDRLALLQVRRILQQLGLDSTCEDSIVVKEVCGAVSRRAAQLCGAGLAAIVEKRREDQGLEHLRITVGVDGTLYKLHPHFSRILQETVKELAPRCDVTFMLSEDGSGKGAALITAVAKRLQQAQKEN | –
